Results on 60 molecules are retold here after PubChem BioAssay AID1159614 (National Center for Advancing Translational Sciences (NCATS), 2016).

Among all 45,000 compounds or so, about 65 (0.1%) were called active. Calls come from the whole dose curve; as a rule, active = well fitted activation curve with a large enough effect; inconclusive = small, poorly fitted or top-dose-only effect; inactive = no such curve, though single readings can be large or run the other way. Some of the results follow.

UniProt P54803, sequence (P54803 whole entry, looked up): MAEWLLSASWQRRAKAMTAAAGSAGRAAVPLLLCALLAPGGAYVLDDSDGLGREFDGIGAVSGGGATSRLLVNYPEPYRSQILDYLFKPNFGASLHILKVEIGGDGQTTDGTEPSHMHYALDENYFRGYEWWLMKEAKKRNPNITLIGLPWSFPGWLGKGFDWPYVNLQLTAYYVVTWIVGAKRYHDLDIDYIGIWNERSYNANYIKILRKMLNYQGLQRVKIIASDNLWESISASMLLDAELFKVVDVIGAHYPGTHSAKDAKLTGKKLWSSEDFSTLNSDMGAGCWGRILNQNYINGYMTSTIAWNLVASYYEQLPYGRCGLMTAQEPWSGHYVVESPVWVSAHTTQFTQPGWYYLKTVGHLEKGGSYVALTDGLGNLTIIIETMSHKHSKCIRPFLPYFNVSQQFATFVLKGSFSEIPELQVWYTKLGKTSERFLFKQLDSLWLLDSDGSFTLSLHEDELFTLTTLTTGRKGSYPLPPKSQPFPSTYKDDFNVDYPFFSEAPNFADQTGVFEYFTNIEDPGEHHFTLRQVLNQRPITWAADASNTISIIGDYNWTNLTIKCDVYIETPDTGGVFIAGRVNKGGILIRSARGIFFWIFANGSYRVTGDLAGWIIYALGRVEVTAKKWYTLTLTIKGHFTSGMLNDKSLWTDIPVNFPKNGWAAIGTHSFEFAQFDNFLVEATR

This assay has as its target Galactocerebrosidase (Homo sapiens) (UniProt P54803). The assay is described as follows: A Novel Cell-Based Assay to Identify Small Molecules for B -Galactocerebrosidase. Note: 0% is about no effect; nearly all actives have a fitted effect of over 65% in size. The note with it: 145M-Twi-hGALC-G270D cells (Twitcher mouse brain line with human GALC G270D), HMU-beta-Gal fluorescence, 48 h; series mostly up to 57.5 µM; activation: at the top concentration. The essentials:
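Fluorescence readout: HMU-β-gal cleavage by mutant GALC (0.1 mM final, citrate/phosphate pH 5.2 with 1 mg/mL taurocholate), stopped with carbonate/bicarbonate plus Triton X-100. Cells: murine Twitcher 145M-Twi expressing human G270D GALC; qHTS for activators.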
On to `Cc1cccc(-n2ccnc2SCC(=O)Nc2nc3ccccc3s2)c1`, for which the “activation” value is inactive: -22.6%. The value for `CCN(CCCNC(=O)c1nn(-c2ccc(OC)c(Cl)c2)c(=O)c2c1c1ccccc1n2C)c1cccc(C)c1` was inactive: -10.9%; that for `CCOC(=O)c1ccc(NS(=O)(=O)c2cc(Br)cc3c2N(C(C)=O)C(C)C3)cc1` (stereo not given) was inactive: -13.1%. The value for `CCc1ccccc1Nc1cc(C(=O)NC2CCC(C)CC2)c2ccccc2n1` (stereo not given) was inactive: -15.6%; that for `COc1ccc(CNC(=O)c2cc(-c3ccc(C)c(C)c3)n[nH]2)cc1` was inactive: -13.9%. On to `CCc1c(C)sc(NC(=O)C2c3ccccc3Oc3ccccc32)c1C(=O)OC(C)C`, for which the “activation” value is inactive: 1.57%. To `COc1ccc(OC)c(C2C(C(=O)Nc3ccccc3OC)=C(C)Nc3c(C(=O)Nc4ccc(F)cc4)cnn32)c1` (stereo not given) belongs inactive: -5.47%.

`O=C(Nc1cc(Cl)cc(Cl)c1)c1cc(S(=O)(=O)N2CCc3ccccc3C2)ccc1F`: the “activation” value was inactive: -11.7%. To `CCOC(=O)c1cccc(NC(=O)C2CCCN(c3nnc(C)c4c(C)n(-c5ccccc5)nc34)C2)c1` (stereo not given) belongs inactive: -7.56%; to `COc1ccc(NC(=O)c2cc3cc(C)ccc3n2C)cc1`, inactive: -8.2%. To `Cc1ccc(-c2nnc3ccccc3c2C(=O)Nc2cccc(Cl)c2)cc1` belongs inactive: -3.81%; to `Cn1c(=O)c(=O)n(C)c2cc(N3CCOCC3)c(NS(=O)(=O)c3ccc(F)c(Cl)c3)cc21`, inactive: -9.62%; to `CC(C)(C)OC(=O)N1CCC(c2c(C(=O)NCc3ccc4c(c3)OCO4)cnn2-c2ccccc2Cl)CC1`, inactive: -12%. Take `COc1ccc(NC(=O)c2ccc3c(c2)nnn3C2CCCC2)cc1Cl`: the “activation” value was inactive: -11.2%. To `Cc1ccc(Cn2c(C(=O)O)c(CNCc3cccs3)c3ccc(C)cc32)cc1` belongs inactive: -2.32%; to `COc1cc(NC(=O)NCCn2nnc3cc(S(=O)(=O)N(C)C)ccc32)cc(OC)c1`, inactive: 0.841%; to `Cc1ccc(Cl)cc1NC(=O)c1ccc2snnc2c1`, inactive: -14.5%. As to `COc1ccc(C(=O)Nc2nnc(S(=O)(=O)N(CC(C)C)c3ccccc3)s2)cc1`, the “activation” value is inactive: -3.76%.

For `CNS(=O)(=O)c1cn(CC(=O)Nc2ccc(C)c(N(C)C)c2)cc1S(=O)(=O)NC`, the “activation” value is inactive: -6.44%. To `CCN(C(=O)c1cc(S(=O)(=O)N2CCc3ccccc32)cn1C)c1cccc(C)c1` belongs inactive: -9.17%. The value for `CC1=C(C(N)=O)C(c2ccc(F)cc2)n2nc(-c3ccc(N(C)C)cc3)nc2N1` (stereo not given) was inactive: -18.4%; that for `Cc1ccc(Cl)cc1N1CCN(C(=O)c2cccn2-c2nnc(N3CCCC3)s2)CC1` was inactive: -12.3%. The value for `Oc1ccc(C(O)CNCCCCCCNCC(O)c2ccc(O)c(O)c2)cc1O` (stereo not given) was inactive: -24.1%. For the molecule `Cc1ccc2c(=O)c(C(=O)c3ccc(F)cc3)cn(CC(=O)NCc3ccccc3Cl)c2n1`, the “activation” value is inactive: -18.7%. To `Cc1ccc(-c2nn(CC(=O)NC3CCCCC3)c3c2cnc2ccccc23)cc1` belongs inactive: -17%; to `Cc1cccc(C(=O)OCc2cc(=O)n3nc(C4CCCCC4)sc3n2)c1`, inactive: -13.2%; to `COc1ccc2[nH]c(S(=O)Cc3ncc(C)c(OC)c3C)nc2n1` (stereo not given), inactive: -4.44%.

As for `O=C(Cc1cccs1)NC1CC(=O)N(c2ccc(Cl)cc2)C1` (stereo not given), the “activation” value was inactive: -11.5%. The value for `Cc1ccc(-c2nn3c(-c4ccccc4)nnc3c3ccccc23)cc1` was inactive: -8.36%; that for `CC(C)Sc1ncc(Cl)c(C(=O)N(Cc2ccc(F)cc2)C2CCS(=O)(=O)C2)n1` (stereo not given) was inactive: -15.2%.

Turning to `Cc1ccc(NC(=O)CN2C(=O)C(C)(C)c3ccccc32)cc1`, the “activation” value is inactive: -8.15%. Consider `CC1=C(C(=O)Nc2ccc(C)cc2)C(c2ccc(Cl)cc2)n2nnnc2N1` (stereo not given), for which the “activation” value was inactive: -20.4%.

As to `CCOc1ccc(N2CC(NC(=O)Cc3ccccc3)CC2=O)cc1` (stereo not given), the “activation” value was inactive: -17.6%.

For `COc1ccc(N2Cc3cccc(C(=O)Nc4ccc(C)c(C)c4)c3C2=O)cc1`, the “activation” value was inactive: 4.41%.

As for `CCc1cccc(N2C(=O)CS(=O)(=O)C23C(=O)N(Cc2ccc(F)cc2)c2ccc(C)cc23)c1` (stereo not given), the “activation” value was inactive: -23.1%.

In the case of `O=C(NCCC1=CCCCC1)c1ccc2c(c1)N(Cc1ccccc1F)C(=O)c1ccccc1S2(=O)=O`, the “activation” value is inactive: -15.1%. To `CCOC(=O)c1cc(-c2ccccc2)n(-c2cccc(C(=O)N(CC)c3ccccc3)c2)c1C` belongs inactive: 3.89%; to `CCN1c2cc(C)ccc2-n2cccc2C12CCN(C(=O)Nc1cc(OC)c(OC)c(OC)c1)CC2`, inactive: -2.79%. To `Cc1ccc(S(=O)(=O)c2nc(-c3ccco3)oc2SCc2ccccc2Cl)cc1` belongs inactive: -37.2%; to `CCOC(=O)c1c(NC(=O)c2ccc(S(=O)(=O)N3CCCC(C)C3)cc2)sc2c1CCN(C(C)C)C2` (stereo not given), inactive: -20%. The value for `COc1ccc(N2CCN(C(=O)NCc3noc4ccccc34)CC2)cc1` was inactive: -11.2%; that for `COc1cccc(NC(=O)C2CCCN2S(=O)(=O)c2ccc3c(c2)C(C)(C)C(=O)N3C)c1` (stereo not given) was inactive: 3.91%; that for `Cc1ccc2oc3c(c(=O)c2c1)C(c1cccc(O)c1)N(Cc1ccccc1Cl)C3=O` (stereo not given) was inactive: -19.5%. Take `Cc1cc(C)cc(-n2ccn3c(CC(C)(C)CC(=O)O)nnc3c2=O)c1`: the “activation” value is inactive: 3.12%. To `CC(C)c1ccc2oc(-c3cccc(NC(=O)c4ccc5c(c4)OCCO5)c3)nc2c1` belongs inactive: -18.9%. The value for `Cc1c2cnn(-c3ccccc3)c(=O)c2c(C)n1C(C)C(=O)Nc1ccc(Br)cc1F` (stereo not given) was inactive: -19.4%; that for `Cc1ccc(-n2c(SCC(=O)Nc3cccc(F)c3)nc3c(oc4ccccc43)c2=O)cc1C` was inactive: 10.5%; that for `N#Cc1ccccc1Cn1c(=O)n(Cc2ccc(C(=O)NC3CCN(Cc4ccccc4)CC3)cc2)c(=O)c2ccccc21` was inactive: -7.92%. The value for `CCOc1ccc(/C=C/c2nc(C#N)c(Nc3ccc(OC)cc3)o2)cc1` was inactive: -8.35%; that for `CCCOc1ccc(CN(C(=O)c2nc(SC(C)C)ncc2Cl)C2CCS(=O)(=O)C2)cc1` (stereo not given) was inactive: -9.91%; that for `CSc1ccc(CCNC(=O)CCc2c(C)nc3cc(-c4ccccc4)nn3c2C)cc1` was inactive: -2.8%.

Consider `CCNC(=O)c1ccc2nc(Cc3ccccc3)oc2c1`, for which the “activation” value is inactive: -7.27%. The value for `COc1cc2[nH]c(=O)n(CCCCCC(=O)NCCc3ccccc3)c(=O)c2cc1OC` was inactive: -16.9%. The value for `Fc1ccc(-c2ccc(CNCCSc3nnnn3-c3ccccc3)o2)cc1Cl` was inactive: -26.9%; that for `O=C(Nc1c(C(=O)Nc2cccc(F)c2)oc2ccccc12)c1cc2ccccc2o1` was inactive: -5.9%. To `CCOc1nc(-c2ccc(C)cc2)ccc1-c1noc(-c2ccccc2F)n1` belongs inactive: -11.7%. For the molecule `O=C(Nc1nnc(S(=O)(=O)N2CCc3ccccc32)s1)c1ccccc1`, the “activation” value is inactive: -8.3%. The value for `CC(C)COc1ccc(C(=O)N2CCN(CCc3ccccn3)CC2)cc1` was inactive: -5.2%. The value for `COc1cccc(C2c3c(-c4ccccc4O)n[nH]c3C(=O)N2CCc2ccc(OC)c(OC)c2)c1` (stereo not given) was inactive: -7.13%; that for `O=C(CSc1ncc(CO)n1Cc1ccccc1)Nc1ccc(C(F)(F)F)cc1` was inactive: -29.4%.
